Measured values from paper PMC4336329 (PLoS ONE, 2015).
Among all 310,000 compounds or so, about 2,200 (0.71%) showed an effect of 50% or more. The effect is printed as a negative number. This is one part of the list.

target: human ether-à-go-go-related gene (hERG) potassium channel (human, UniProt Q12809); experiment: primary screen, population patch clamp on CHO cells stably expressing hERG
Sequence (Q12809 whole entry, looked up): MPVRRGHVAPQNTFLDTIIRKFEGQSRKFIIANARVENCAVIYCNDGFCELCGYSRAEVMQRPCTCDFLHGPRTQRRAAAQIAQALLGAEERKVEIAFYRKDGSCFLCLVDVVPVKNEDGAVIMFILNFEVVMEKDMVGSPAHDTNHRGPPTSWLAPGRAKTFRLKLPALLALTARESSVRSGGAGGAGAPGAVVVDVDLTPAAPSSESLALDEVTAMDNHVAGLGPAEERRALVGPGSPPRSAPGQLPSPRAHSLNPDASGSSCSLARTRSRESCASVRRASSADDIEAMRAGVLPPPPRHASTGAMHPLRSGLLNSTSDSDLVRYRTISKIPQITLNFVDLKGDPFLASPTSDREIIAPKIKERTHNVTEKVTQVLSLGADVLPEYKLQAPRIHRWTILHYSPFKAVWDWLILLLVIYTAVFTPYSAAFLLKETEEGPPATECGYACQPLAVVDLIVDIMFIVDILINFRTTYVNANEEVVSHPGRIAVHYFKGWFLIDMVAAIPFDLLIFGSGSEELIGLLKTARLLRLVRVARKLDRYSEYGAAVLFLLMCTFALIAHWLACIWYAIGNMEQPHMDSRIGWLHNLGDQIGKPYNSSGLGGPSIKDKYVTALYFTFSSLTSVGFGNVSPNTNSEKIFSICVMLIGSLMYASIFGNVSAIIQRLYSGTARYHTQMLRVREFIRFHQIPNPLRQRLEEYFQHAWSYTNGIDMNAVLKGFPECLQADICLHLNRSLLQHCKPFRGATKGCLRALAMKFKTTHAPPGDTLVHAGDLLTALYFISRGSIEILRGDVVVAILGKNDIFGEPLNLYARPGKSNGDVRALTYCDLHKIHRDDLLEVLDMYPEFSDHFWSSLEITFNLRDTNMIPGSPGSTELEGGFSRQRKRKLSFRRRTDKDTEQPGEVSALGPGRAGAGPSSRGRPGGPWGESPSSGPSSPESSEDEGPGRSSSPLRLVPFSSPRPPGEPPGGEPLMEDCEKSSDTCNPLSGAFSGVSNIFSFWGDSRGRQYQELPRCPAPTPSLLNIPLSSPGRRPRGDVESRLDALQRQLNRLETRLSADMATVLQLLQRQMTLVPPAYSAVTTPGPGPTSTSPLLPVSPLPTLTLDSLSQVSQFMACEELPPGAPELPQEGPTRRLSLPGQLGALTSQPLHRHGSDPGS

Compound | hERG current change (%, negative = inhibition) at 1uM [%]
C=CCn1c(=O)c(C(=O)NCc2ccc(Cl)cc2)c(O)c2ccccc21 | 11.3
C/C(=N\NC(=O)Cc1ccc(Cl)cc1)c1ccccn1 | -4.9
COc1ccccc1N1CCN(S(=O)(=O)c2c(C)[nH]c(C)c2C(=O)N2CCCC2)CC1 | 11.9
CN1CCN(/N=C/c2ccc(Cl)c(Cl)c2)CC1 | -10.8
O=C(Nc1nc2ccccc2[nH]1)c1cccc(Cl)c1 | 16.9
Cc1cc(C(=O)OCC(=O)NC(=O)c2cccn2C)c2ccccc2n1 | 8.72
COc1cccc(NC(=O)Cn2c3ccccc3c3nc4n(c(=O)c32)CCS4)c1 | 2.19
Cc1nn2cc(-c3ccc(-c4ccccc4)cc3)nc2s1 | 10.7
Cc1c(C(=O)N2CCCCC2)c(S(=O)(=O)NCc2ccccc2Cl)c(C)n1C | 11
NNc1nc2c(-c3cccc(C(F)(F)F)c3)nnn2c2ccccc12 | 15.4
COc1cc2c(cc1N/C=C(\C#N)c1nc(-c3ccc(F)cc3)cs1)oc1ccccc12 | -15.6
CCn1cc(S(=O)(=O)NCc2ccc(OC)cc2)cn1 | 5.26
COc1ccc(S(=O)(=O)N(C)c2ccc(C(=O)Nc3cccnc3)cc2)cc1 | 9.96
CCCn1c(=O)c2c(nc3n2CCCN3CCc2ccc(OC)c(OC)c2)n(C)c1=O | 0.562
Cc1cc(N2C(=O)C=CC2=O)c([N+](=O)[O-])cc1C | -3.92
O=C(N/N=C1\CCCc2ccccc21)c1cccc([N+](=O)[O-])c1 | -1.15
O=C(N/N=C/c1ccc2nccnc2c1)c1cccc([N+](=O)[O-])c1 | 8.28
COc1ccc(OC)c(CNC(=O)C2CCN(S(=O)(=O)N3CCCCC3)CC2)c1 | 5.55
O=C(NCC1CCCO1)c1ccc2c(=O)n(CC3CCCO3)c(=S)[nH]c2c1 (stereo not shown) | 12.2
Cc1cc(=O)[nH]c(N/N=C/C2=C(N3CCOCC3)C(=C\c3ccc(Cl)cc3)/CC2)n1 | 9.83
COc1ccc(OC)c(-n2c(-c3cc(-c4ccccc4)n[nH]3)n[nH]c2=S)c1 | 13.9
COc1ccc(S(=O)(=O)NCCS(=O)(=O)N2CCN(c3ccccc3)CC2)cc1 | 1.73

Compound | hERG current change (%, negative = inhibition) at 1uM [%]
CCn1c(CNC(=O)c2ccccc2F)nnc1SCC(=O)NC1CCCCC1 | -6.46
CCOC(=O)CSc1nc2ccccc2c(=O)n1CCC(=O)NCCc1ccc(OC)c(OC)c1 | -1.71
COc1ccc(CCNC(=O)CSc2nc3ccccc3c3nc(CCN4CCCCC4)nn23)cc1OC | 4.4
Fc1cccc(COc2ccccc2CNc2ccccc2)c1 | 11.2
NC1=NC(=O)S/C1=C\c1ccc(F)cc1 | 13.6
CSc1nnc(-c2ccc(S(=O)(=O)N3CCCCC3)cc2)o1 | 14.4
Cc1cccc(C)c1NC(=O)C1C2C=CC(C2)C1C(=O)NCc1ccccn1 (stereo not shown) | 3.15
Cn1c(Cn2c(=O)sc3ccccc32)nnc1SCC(=O)Nc1ccc(F)cc1 | 11.6
O=C(CC1C(=O)NCCN1C(=O)Nc1ccccc1)Nc1cc(Cl)ccc1Cl (stereo not shown) | 6.94
NC(=O)CC(NC(=O)Cc1ccc(Cl)cc1)c1ccc(NC2CCN(Cc3ccccc3)CC2)c([N+](=O)[O-])c1 (stereo not shown) | 7.83
O=C(NCCc1ccccc1C(F)(F)F)C1CCC(=O)N(CCCN2CCCC2=O)C1 (stereo not shown) | 12.2
COc1cc(OC)cc(C(=O)N2CCC(n3c(C)nc4cc(F)ccc43)CC2)c1 | -23.9
O=C(CCNC(=O)c1ccc(Br)o1)NCc1ccc(Cl)cc1 | 8.17
CCc1nc(SCC(=O)Nc2ccc3c(c2)OCCO3)c2oc3ccccc3c2n1 | 10.2
CCCN1CCC(=O)N([C@H](CSc2ccccc2)Cc2ccccc2)CC1 | -48.9
CCOc1ccc(OCC(=O)Nc2cc3c(cc2C(=O)O)OCCCO3)cc1 | 14.5
O=C1OCc2cc(NC(=O)C3CCCO3)ccc21 (stereo not shown) | 7.76
COc1ccc(C(=O)NCCCN2CCOCC2)cc1S(=O)(=O)N1CCCc2ccccc21 | -12.2
N#CC1(NC(=O)COC(=O)c2nc(Cl)ccc2Cl)CCCCC1 | -0.321
CCCCNC(=O)CCCCCNS(=O)(=O)c1ccc(OC)cc1 | 6.89
O=C(CN1CCCCCC1)NC(c1ccccc1)c1ccccc1.O=C(O)C(=O)O | -31.7
